Reference: PubChem BioAssay AID720709 (National Center for Advancing Translational Sciences (NCATS), 2013)
Among all 360,000 compounds or so, about 520 (0.14%) were called active. The shares of active, inactive and inconclusive entries below differ from those in the screen. Calls follow the shape of the dose curve; as a rule, active = well fitted inhibition curve with a large enough effect; inconclusive = small, poorly fitted or top-dose-only effect; inactive = no such curve, though single readings can be large or run the other way. Potencies beside an inconclusive call are fits to weak or partial responses and may not hold up.

biological target: Rap guanine nucleotide exchange factor 3 (Homo sapiens) (UniProt O95398); assay: qHTS for Antagonist of cAMP-regulated guanine nucleotide exchange factor 3 (EPAC1): primary screen; settings: EPAC1 GEF assay, Rap1b-BODIPY-GDP exchange fluorescence; activity change, negative = inhibition: at 115 µM (top of the series); also: nearly all actives have a fitted effect of over 50% in size;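 as to activity change, negative = inhibition: plate controls were vehicle for no effect and positive control for full effect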
UniProt O95398, sequence (O95398 whole entry, looked up): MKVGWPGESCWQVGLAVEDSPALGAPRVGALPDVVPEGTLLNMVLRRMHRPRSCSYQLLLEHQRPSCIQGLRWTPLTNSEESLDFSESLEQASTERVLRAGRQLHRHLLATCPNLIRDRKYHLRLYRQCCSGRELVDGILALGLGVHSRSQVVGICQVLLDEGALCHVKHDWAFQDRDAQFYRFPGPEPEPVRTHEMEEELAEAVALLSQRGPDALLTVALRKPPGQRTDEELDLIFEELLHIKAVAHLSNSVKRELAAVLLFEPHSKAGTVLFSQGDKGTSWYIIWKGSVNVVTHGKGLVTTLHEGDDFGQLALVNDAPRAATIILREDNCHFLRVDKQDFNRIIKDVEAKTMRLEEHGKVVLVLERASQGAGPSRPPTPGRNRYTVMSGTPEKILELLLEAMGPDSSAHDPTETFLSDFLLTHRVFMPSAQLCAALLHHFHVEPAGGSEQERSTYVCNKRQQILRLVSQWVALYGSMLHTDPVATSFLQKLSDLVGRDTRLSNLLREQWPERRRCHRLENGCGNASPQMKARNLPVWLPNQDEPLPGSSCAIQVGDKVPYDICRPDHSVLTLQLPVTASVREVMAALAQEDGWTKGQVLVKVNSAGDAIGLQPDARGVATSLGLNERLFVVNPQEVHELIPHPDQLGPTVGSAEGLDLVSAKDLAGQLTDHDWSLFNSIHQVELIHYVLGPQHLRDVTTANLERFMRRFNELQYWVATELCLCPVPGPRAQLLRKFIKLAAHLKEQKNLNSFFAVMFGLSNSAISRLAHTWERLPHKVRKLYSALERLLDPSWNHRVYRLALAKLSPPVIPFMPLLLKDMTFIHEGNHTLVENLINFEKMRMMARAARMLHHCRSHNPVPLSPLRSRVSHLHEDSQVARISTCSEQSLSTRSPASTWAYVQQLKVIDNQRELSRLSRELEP
Potency is read from the fitted curve at half-maximal effect; tags tell the direction and shape of the fitted curve.

Potency, active:
Oc1cccc(C=Nc2cccc3ccccc23)c1O 50.1 µM

Potency, inconclusive:
COCCn1c(=NC(=O)c2ccc3c(c2)OCCO3)sc2cc(S(N)(=O)=O)ccc21 100 µM [inhibitor, partial curve, poor fit]
COC(=O)c1cc(S(=O)(=O)NCc2ccc(Br)cc2)c[nH]1 31.6 µM [inhibitor, partial curve, poor fit]
N=C1/C(=C\c2ccc(Br)o2)C(=O)N=C2SC(CC(=O)N3CCOCC3)=NN12 35.5 µM [inhibitor, partial curve, poor fit]
O=c1[nH]c(/C=C\c2cccc(O)c2)nc(O)c1[N+](=O)[O-] 89.1 µM [inhibitor, single point]
Cn1nc2c3ccccc3n(Cc3ccc(F)cc3)c2nc1=S 63.1 µM [inhibitor, partial curve]
O=C1C(=Cc2cn(-c3ccccc3)nc2-c2ccc(OCc3ccccc3F)cc2)SC(=S)N1CCS(=O)(=O)O 10 µM [inhibitor, full curve]
O=[N+]([O-])c1ccc(O)c(/C=N/NC(=S)Nc2ccc(Cl)cc2Cl)c1 56.2 µM [inhibitor, partial curve]
CCc1cc(CNC(=O)C2CCC(=O)N(CCc3ccc(OC)cc3)C2)on1 (stereo unspecified) 89.1 µM [inhibitor, partial curve, poor fit]
COC(=O)CCC(=O)N1CCCC(CO)(Cc2ccccc2F)C1 (stereo unspecified) 56.2 µM [inhibitor, partial curve]
C#CCn1c(=NC(=O)c2ccc(Br)s2)sc2cccc(OC)c21 89.1 µM [inhibitor, single point]
O=C(Nc1ccc(F)cc1)C1CCCN(S(=O)(=O)c2cccc3cccnc23)C1 (stereo unspecified) 100 µM [inhibitor, single point]
COc1ccc2c(c1)C(=O)N(Cc1ccccc1)C(=O)C2(C)C 79.4 µM [inhibitor, single point]
O=C(N/N=C/C(Cl)=C/c1ccccc1)c1ccncc1 31.6 µM [inhibitor, full curve, poor fit]
Cc1ccc(S(=O)(=O)NCC(=O)OC(C)C(=O)NC(=O)NC2CCCCC2)cc1C (stereo unspecified) 70.8 µM [inhibitor, single point]
CCOC(=O)N1CCC(NC(=O)CSCc2nc(-c3ccc(OC)cc3)oc2C)CC1 56.2 µM [inhibitor, partial curve]
COc1ccc(C=C2SC(=S)N(CCCC(=O)Nc3ccc(C(=O)O)c(O)c3)C2=O)cc1OC 79.4 µM [inhibitor, partial curve]
FC(F)(F)c1ccc(NC(=S)NCc2ccccc2)cc1 28.2 µM [inhibitor, partial curve]
Cc1nn(-c2ccccc2)c(C)c1-c1cc(C(=O)N/N=C/c2ccc(O)cc2)[nH]n1 50.1 µM [inhibitor, partial curve]
COc1cc(/C=C2/C(=O)NN(c3ccc(Cl)cc3)C2=O)ccc1OC(=O)c1ccco1 22.4 µM [inhibitor, partial curve]
CC(C)(C)OC(=O)N(CCc1ccccc1)Cc1cccc(OCc2cccc(NC(=O)C3CCCC3)c2)c1 79.4 µM [inhibitor, single point]
O=C(CCCN1C(=O)/C(=C\c2ccco2)SC1=S)Nc1ccc(O)cc1C(=O)O 89.1 µM [inhibitor, single point]
O=C(O)c1cc(S(=O)(=O)N2CCCCC2)ccc1Cl 44.7 µM [inhibitor, partial curve]
O=C(c1nc2ccccn2c1CNCCCn1ncc2ccccc21)N1CCOCC1 50.1 µM [inhibitor, partial curve]
O=[N+]([O-])c1ccccc1-c1cc(-c2ccccc2O)n[nH]1 3.16 µM [inhibitor, full curve, poor fit]
CCCCn1c(CN2CCOCC2)nc2c1c(=O)n(C)c(=O)n2C 25.1 µM [inhibitor, single point]
CCN=c1scc(C)n1/N=C/c1cc(Br)c(O)c(OC)c1 39.8 µM [inhibitor, single point]
Cc1cc(Br)c2c(c1)/C(=C/C(=O)c1cccs1)C(=O)N2 44.7 µM [inhibitor, partial curve]
CCCCNC(=S)Nc1ccc(SC(F)F)cc1 28.2 µM [inhibitor, full curve, poor fit]
COc1cc(C(=O)NCC(=O)N/N=C(/C)c2ccc3c(c2)CCCC3)cc(OC)c1OC 39.8 µM [inhibitor, single point]
COc1ccc(NC(=O)/C=C/c2ccc(Br)o2)cn1 20 µM [inhibitor, full curve]

Activity change, negative = inhibition, inactive:
N#Cc1cc(Cl)c(N2CCOCC2)cc1C#N -3.14%
COc1ccccc1NC(=O)c1ccc(N2CC3CC(C2)c2cccc(=O)n2C3)c(NC(=O)c2ccncc2)c1 (stereo unspecified) -4.39%
COc1cccc(/C=N/NC(=O)c2nc(-c3ccccc3)cc(-c3ccccc3)n2)c1 5.46%
O=C1CC(N2CCN(S(=O)(=O)c3ccccc3F)CC2)C(=O)N1c1ccccc1F (stereo unspecified) 6.75%
C=CCn1c(=O)c(C(C)=O)cn(N(C)c2ncc(C(F)(F)F)cc2Cl)c1=O -7.23%
Cc1nc(CNS(=O)(=O)c2cccc(F)c2)cs1 7.71%
CCCOc1ccc(CSc2nc3ccccc3[nH]2)cc1 -14.8%
CCn1c(=S)sc2c(=O)n(CC(=O)Nc3ccccc3C(F)(F)F)c(C)nc21 26.9%

Activity change, negative = inhibition, inconclusive:
Cc1ccc(N(C(=O)c2snc(C(N)=O)c2N)C(C(=O)NC2CCCC2)c2ccc(C)o2)cc1 (stereo unspecified) -18.4% [inhibitor]
CN(C)c1nc(NNC(=O)c2ccccc2)nc(N(C)C)n1 -14.6% [inhibitor]
